# Assay results reported in the supplement of paper PMC12217912.
# The list shows a part of the results. The full chains were built here from the parent and the listed change. Values near 0.05 are background.
# B1: TEV protease; numbered along this chain (parent)
# chain: MGESLFKGPRDYNPISSSICHLTNESDGHTTSLYGIGFGPFIITNKHLFRRNNGTLVVQSLHGVFKVKDTTTLQQHLVDGRDMIIIRMPKDFPPFPQKLKFREPQREERICLVTTNFQTKSMSSMVSDTSCTFPSGDGIFWKHWIQTKDGQCGSPLVSTRDGFIVGIHSASNFTNTNNYFTSVPKNFMELLTNQEAQQWVSGWRLNADSVLWGGHKVFMVKPEEPFQPVKEATQL
# Variants of: B1
# Assay: raw area under fraction-flipped curve 0-4 h after induction (AUC4h, not background-subtracted), DNA-recorder readout of cleavage of the substrate (dimensionless); higher = more cleavage of the substrate by the protease variant
# Settings: temperature: 34 °C; time window: 0-4 h after rhamnose induction
# Method: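 In vivo DNA recorder in E. coli TOP10(DE3) ΔrhaA at 34 °C. Each TEVp single-site mutant (parent TEVp 0) is paired with a single-site variant of the 7-mer TEVs (canonical ENLYFQ|S). The substrate sits between flexible linkers in a Bxb1-sfGFP-TEVs-SsrA fusion, so cleavage stabilises Bxb1 and speeds flipping of a recombination array, read by NGS. The value is the raw area under the fraction-flipped curve over 0-4 h after rhamnose induction (AUC4h), with ≥20 reads per time point. It is not background-subtracted; inactive controls average about 0.047.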
# 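Note: Bxb1 expression induced with 0.2% (w/v) L-rhamnose at OD600 near 0.5, cultures sampled hourly, flipped fraction per protease–substrate barcode pair counted by paired-end Illumina sequencing.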
Variant,area with substrate ENAYFQS,area with substrate ENDYFQS,area with substrate ENEYFQS,area with substrate ENFYFQS,area with substrate ENGYFQS,area with substrate ENHYFQS,area with substrate ENKYFQS,area with substrate ENMYFQS,area with substrate ENNYFQS,area with substrate ENPYFQS,area with substrate ENQYFQS,area with substrate ENRYFQS,area with substrate ENSYFQS,area with substrate ENTYFQS,area with substrate ENVYFQS,area with substrate ENYYFQS,area with substrate ENCYFQS,area with substrate ENWYFQS,area with substrate ENIYFQS
V165Y,0.0531,0.0535,0.0409,0.0533,0.0581,0.0532,0.052,0.0577,0.0615,0.0494,0.0466,0.057,0.0462,0.0494,0.0582,0.0289,,,
N178K,0.0789,,,0.0692,,0.0816,0.0489,0.0862,,0.0522,0.0634,,0.0511,,0.0716,0.0593,0.0806,0.059,
N178D,0.0649,,,0.0609,0.0531,0.0603,0.0609,,0.0661,0.067,0.0709,,,,0.0483,,,0.0617,
N178H,0.0702,,0.0735,0.0555,,,,,,,0.0709,,,0.0581,0.0883,,0.0393,,
Q194Y,0.0653,0.0553,0.0673,0.0511,0.0719,,0.0574,,0.0676,,0.0516,0.0557,0.0457,0.072,,,0.0759,,
M188A,0.0619,,,,0.067,0.0644,0.0671,0.0921,0.0696,,0.0497,0.0637,0.0656,,0.0705,,0.0782,0.0484,0.113
W203I,0.0566,0.0501,0.0897,,0.075,,0.0639,,0.0569,0.0572,0.0587,0.0674,0.0661,,,,0.0632,,
N186D,0.0648,0.0577,0.0639,,0.0612,0.065,0.0743,0.0577,0.05,0.0657,,,0.0622,,0.0658,0.0624,,0.0436,
A196S,0.0505,0.081,0.066,0.0312,0.0794,,0.0596,,0.0683,0.0512,0.0633,0.0677,0.0658,0.0626,0.0909,0.0789,0.0501,,0.0982
D161M,0.0591,0.0582,0.0428,,0.0523,,0.0653,,,0.047,,0.0515,0.0619,,,,0.0575,0.0403,0.0874
Q198H,0.0479,0.0644,,0.0561,0.0691,,0.0585,,0.0526,,0.0527,0.0492,,0.0668,,,,0.068,
L191S,0.0531,0.0513,,,,,0.0611,0.0624,0.0308,,0.0273,,0.0584,0.0638,,,,,0.0521
L191E,0.0498,,0.0626,0.0676,0.0598,0.0642,,,0.0647,0.0739,0.0534,0.0515,0.0653,0.0696,0.0765,,0.0538,,0.0548
S182I,0.0551,,0.0417,,0.0726,,0.0505,,0.0656,0.0567,0.0537,0.057,0.0549,,0.0555,,0.0639,,
S182P,0.0699,0.0465,0.0617,0.0529,0.072,0.0545,,,,0.0617,0.0565,0.0592,0.0606,0.0736,,,,,
